This is an account of results in ChEMBL document CHEMBL4888484, “Replenishing the malaria drug discovery pipeline: Screening and hit evaluation of the MMV Hit Generation Library 1 (HGL1) against asexual blood stage Plasmodium falciparum ,using a nano luciferase reporter read-out” (2022).

In all, about 150,000 compounds went through this assay and about 540 (0.36%) showed an effect of 50% or more. Some of the results follow.

The test deals with Plasmodium falciparum. The test can be described thus: Primary screen in NF54 nanoGlo assay, in single point, at 2uM, 72h; a lower Z score goes with more inhibition. It is filed as functional, Erythrocyte. To be noted: timepoint 72 hour.
One may read the % Inhibition as the relative decrease from the control value, in per cent. Take `CN(C(=O)Cn1nnc2ccccc2c1=O)c1ccccc1`: the “% Inhibition” value is -7% and the Z score is recorded as 0.88.
In the same order, the values of `COc1ccc(C(=O)COc2ccccc2N2C(=O)c3cc(Cl)c(Cl)cc3C2=O)cc1` are -8% and 1.01.
Take `CC1(C)CN(C(=O)c2cccc3ccnn23)CCO1`: the “% Inhibition” value is given as -5% and the Z score amounted to 1.01.
Taken in the same sequence, the figures for `O=S(=O)(NC[C@@H](c1ccsc1)N1CCCCCC1)c1ccccc1` were 7% and -0.83.
Taken in the same sequence, the figures for `O=C(N[C@@H](N1CCOCC1)C(Cl)(Cl)Cl)c1ccccc1` were 8% and -1.28.
Consider `Cc1ccc(CN2CCC(CC3CC3)(NC(=O)c3ccccc3)CC2)o1`, for which the “% Inhibition” value is on record as -2% and the Z score was 0.35.
For `CC(=O)N(c1ccccc1)[C@H]1C[C@@H](C)N(C(=O)COc2ccccc2C)c2ccccc21`, the “% Inhibition” value is recorded as -14% and the Z score turned out to be 1.78.
Taken in the same sequence, the figures for `O=C(Oc1ccc2ccccc2c1Br)N1CCCCCC1` were -12% and 1.64.
In the same order, the values of `CCCc1cc(NCC2(N3CCOCC3)CC(OCC)C2)n2ncnc2n1` (centres undefined) are -1% and 0.19.
Taken in the same sequence, the figures for `CCOc1ccc(S(=O)(=O)N[C@H]2CCN(c3ccc(F)cc3)C2=O)cc1` were 3% and -0.45.
As to `Cc1nc(C(=O)N(Cc2ccccc2C(F)(F)F)C2CCCC2)c(=O)[nH]c1C`, the “% Inhibition” value is given as -10% and the Z score stood at 1.29.
For `CN1CC(=O)N2C(CCc3ccccc3)c3[nH]c4ccccc4c3C[C@H]2C1=O` (some centres undefined), the “% Inhibition” value is given as -5% and the Z score was found to be 0.58.
Turning to `Cc1csc([C@H](C)NS(=O)(=O)N2CCOCC2)n1`, the “% Inhibition” value is 10% and the Z score was -1.3.
Taken in the same sequence, the figures for `CN(C)C[C@H]1CN(Cc2csc(-c3ncccn3)n2)CCO1` were -7% and 1.
In the same order, the values of `CCNc1nc(C)c(C(=O)N(C)Cc2nnc(C3CC3)n2C)s1` are -4% and 0.35.
Consider `Cc1nnc(C2CCN(Cc3ccc(Cl)cc3Cl)CC2)s1`, for which the “% Inhibition” value is -7% and the Z score was found to be 1.12.
On to `CCCCN(CC#Cc1ccccc1)C(=O)CCc1nc(C)n[nH]1`, for which the “% Inhibition” value is given as 12% and the Z score is given as -1.66.
As to `CCN(CC)C(=O)NC[C@H]1CCCN1CC`, the “% Inhibition” value was determined as 1% and the Z score was -0.15.
Taken in the same sequence, the figures for `O=C(c1cccc2sc(C(F)(F)F)nc12)N1CC[C@H](CCO)C1` were -8% and 1.02.
Regarding `COc1ccc(S(=O)(=O)Nc2ccc(N(C)C)c(CN(C[C@H]3CCCO3)C(=O)C(C)C)c2)cc1`, the “% Inhibition” value is -3% and the Z score was 0.49.
Taken in the same sequence, the figures for `Cc1cc(NC(=O)CN2CCO[C@H](C3CCC3)C2)on1` were -12% and 1.4.
On to `O=C(NCC1CCOCC1)c1cccc2ccnn12`, for which the “% Inhibition” value is given as -5% and the Z score is on record as 0.87.
Taken in the same sequence, the figures for `COc1ccc(-c2cnc(C(=O)N3CCc4ccccc4C3)o2)cc1` were -25% and 4.05.
Taken in the same sequence, the figures for `C[C@@H](NC(=O)NC1CCN(C)CC1)C(O)(c1ccccc1)c1ccccc1` were 3% and -0.47.
In the same order, the values of `CO[C@H]1CS(=O)(=O)C[C@@H]1NC(=O)c1cc(C(C)C)no1` are -11% and 1.65.
With `CCc1cc(NCCCn2nc(C)c(C)c2C)ncn1`, the “% Inhibition” value was -16% and the Z score is 1.61.
In the case of `COc1ccccc1NC(=O)c1sc2sc(C(=O)Nc3ccccc3OC)c(N)c2c1N`, the “% Inhibition” value is on record as -4% and the Z score is 0.5.
Taken in the same sequence, the figures for `CNS(=O)(=O)Nc1ccc(NC(=O)c2nccnc2N)cc1` were 1% and -0.19.
Taken in the same sequence, the figures for `O=C1[C@H]2CCCC[C@H]2C(=O)N1c1ncn(Cc2cccc(F)c2)n1` were -8% and 1.14.
In the same order, the values of `CC(C)[C@H](C)n1nccc1NC(=O)c1cc(=O)[nH]c(=O)[nH]1` are 1% and -0.17.
With `O[C@@H](CNc1nc(-c2ccncc2)nc2c1CCC2)COCC1CC1`, the “% Inhibition” value is recorded as -5% and the Z score worked out at 0.89.
In the same order, the values of `O=C(NCCc1cccnc1)c1cnc(COc2ccccc2)nc1O` are 0% and 0.01.
Take `Cc1ccc(CNC(=O)CN2CCN(C(=O)Nc3ccc(Cl)cc3)CC2=O)o1`: the “% Inhibition” value was found to be 7% and the Z score was -1.32.
Taken in the same sequence, the figures for `COc1ccc2c(c1)CCc1cnc(-n3ncc(C(=O)NC[C@@H]4CCCN5CCCC[C@H]45)c3C)nc1-2` were 19% and -2.47.
For the compound `O=C(NCc1cccc(C(F)(F)F)c1)c1ccc(CN2CCN(c3ccccc3)CC2)o1`, the “% Inhibition” value was found to be 6% and the Z score is on record as -0.68.
In the same order, the values of `COc1ccc(-c2nnc3c4ccccc4nc(N4CCCN(C(=O)CC(C)(C)C)CC4)n23)cc1` are -2% and 0.27.
For the compound `c1cc2cc(CN3CCc4[nH]ncc4C3)ccc2s1`, the “% Inhibition” value is -5% and the Z score stood at 0.69.
`CC(OC(=O)C(C)N(C)CC(F)(F)F)C1CCOC1` (centres undefined): the “% Inhibition” value is -1% and the Z score is 0.08.
Taken in the same sequence, the figures for `Cc1ccc(-n2ncc(C(=O)NCc3ccc(F)cc3)c2C2CCN(C(=O)OC(C)(C)C)CC2)c(C)c1` were 12% and -1.2.
As to `Cc1cnc(CN(CCO)Cc2sccc2C)cn1`, the “% Inhibition” value was -16% and the Z score was determined as 1.76.
In the same order, the values of `Cn1nc(CNC(=O)c2ccsc2)c2c1CCCC2` are -7% and 1.36.
In the same order, the values of `O=S(=O)(NCC1CC1)c1ccnc(N2CC3CC3(CO)C2)c1` (centres undefined) are -8% and 1.05.
